# Out of some 310,000 compounds screened, about 14,000 (4.5%) showed an effect of 50% or more. Effects have a minus sign here. The list shows a part of the results.
# Target: human ether-à-go-go-related gene (hERG) potassium channel (human, UniProt Q12809)
# Assay: primary screen, population patch clamp on CHO cells stably expressing hERG
# 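Note: peak tail current of the secondary pulse compared with the same well before compound.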
# Chain of human ether-à-go-go-related gene (hERG) potassium channel (Q12809 whole entry, looked up): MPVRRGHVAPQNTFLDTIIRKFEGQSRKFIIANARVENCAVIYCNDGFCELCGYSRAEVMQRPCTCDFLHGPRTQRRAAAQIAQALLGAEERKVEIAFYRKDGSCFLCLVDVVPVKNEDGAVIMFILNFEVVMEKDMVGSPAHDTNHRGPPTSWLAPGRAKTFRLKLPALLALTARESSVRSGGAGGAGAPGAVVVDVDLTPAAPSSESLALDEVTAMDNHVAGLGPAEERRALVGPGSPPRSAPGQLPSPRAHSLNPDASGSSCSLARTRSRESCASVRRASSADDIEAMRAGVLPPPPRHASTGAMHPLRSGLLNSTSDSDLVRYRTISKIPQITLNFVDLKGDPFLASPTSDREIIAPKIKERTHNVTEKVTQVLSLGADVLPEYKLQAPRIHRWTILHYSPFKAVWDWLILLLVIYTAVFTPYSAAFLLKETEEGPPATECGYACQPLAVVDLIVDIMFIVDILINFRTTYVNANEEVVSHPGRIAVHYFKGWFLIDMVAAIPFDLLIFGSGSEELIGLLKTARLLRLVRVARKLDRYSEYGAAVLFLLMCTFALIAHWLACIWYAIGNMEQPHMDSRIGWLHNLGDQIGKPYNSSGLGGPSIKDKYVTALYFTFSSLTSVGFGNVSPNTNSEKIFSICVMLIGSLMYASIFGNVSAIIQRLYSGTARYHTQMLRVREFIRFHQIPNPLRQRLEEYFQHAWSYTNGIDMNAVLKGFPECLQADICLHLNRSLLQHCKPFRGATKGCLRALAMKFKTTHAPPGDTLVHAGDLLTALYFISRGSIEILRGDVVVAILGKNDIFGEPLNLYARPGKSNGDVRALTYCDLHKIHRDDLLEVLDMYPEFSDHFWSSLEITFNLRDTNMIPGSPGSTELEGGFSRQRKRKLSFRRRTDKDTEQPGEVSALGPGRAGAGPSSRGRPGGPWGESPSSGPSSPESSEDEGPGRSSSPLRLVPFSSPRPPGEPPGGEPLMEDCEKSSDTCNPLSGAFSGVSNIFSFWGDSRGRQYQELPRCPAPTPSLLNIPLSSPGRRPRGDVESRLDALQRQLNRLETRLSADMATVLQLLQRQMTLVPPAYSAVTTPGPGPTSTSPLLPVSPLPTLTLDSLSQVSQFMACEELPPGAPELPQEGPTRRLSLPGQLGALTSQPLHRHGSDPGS
row,Structure (SMILES),"hERG current change (%, negative = inhibition) at 10uM [%]"
1,O=C(Nc1ccnn1C1CCN(Cc2ccc(OC(F)F)cc2)CC1)C1CCCC1,-75.3
2,CCCCn1c(=O)[nH]c(=O)c2c1nc(-c1ccc(C)c([N+](=O)[O-])c1)n2CC,-15.2
3,Cc1ccc(N(CC(=O)NC2CCCCC2)C(=O)CNC(=O)c2ccco2)cc1F,-16.5
4,CC(OC(=O)c1ccc2noc(-c3ccccc3)c2c1)C(N)=O (stereo not shown),-3.7
5,CC(C)NC(=O)c1cc2cc(Br)ccc2oc1=O,10.2
6,CC(C)Cn1c(CN(C)Cc2ccccc2)nc2c1c(=O)n(C)c(=O)n2C,-13.6
7,CCCCCn1c(N)c(C#N)c2nc3ccccc3nc21,-22.7
8,CC1CCN(S(=O)(=O)c2ccc3c(c2)oc(=O)n3CC(=O)NCc2ccc3c(c2)OCO3)CC1,6.73
9,Cc1cc(C)cc(OCC(=O)N(C)CC(=O)Nc2ccc(Cl)c(C(F)(F)F)c2)c1,-0.909
10,COc1ccccc1N1C(=N)S/C(=C\c2ccc(-c3ccccc3C(=O)O)o2)C1=O,-5.97
11,Cc1ccc(-c2ccc(CCC(=O)O)n2Cc2ccco2)cc1,12.2
12,COc1cccc(CNC(=O)CCC2CCCN(C(=O)c3ccccc3N(C)C)C2)c1 (stereo not shown),0.174
13,Cc1cccc(C(C(=O)NC2CCCC2)N(C(=O)c2csnn2)C2CCCC2)c1 (stereo not shown),-5.73
14,CC(OC(=O)C1=Cc2ccccc2OC1)C(=O)NC1CCCC1 (stereo not shown),-18.7
15,CCN(CC)C(=O)c1sc(NC(=O)c2cc(-c3ccc(C)s3)nc3ccccc23)c(C(=O)OC)c1C,14.8
16,COc1ccc2c3n(nc2c1)CCN=C3c1ccc(Cl)cc1,10.3
17,CCCCCCCCn1c(=O)c(C(=O)OCC)c(O)c2ccccc21,14.5
18,O=C(c1cccc(C(F)(F)F)c1)N1CCCC1,1.7
19,COc1ccc(N(C(=O)CCl)C(C)(C(=O)Nc2c(C)cccc2C)c2ccccn2)cc1 (stereo not shown),3.59
20,CC1(C)Cc2c(C#N)c(N3CCN(C(=O)c4ccccc4Cl)CC3)nc(-c3ccco3)c2CS1,-2.34
21,COc1ccccc1OCc1ccc(C(=O)Nc2cc(OC)c(OC)c(OC)c2)o1,4.96
22,O=C(N/N=C/c1sc(N2CCOCC2)nc1-c1ccccc1)c1ccc(O)cc1,-5.41

row,Structure (SMILES),"hERG current change (%, negative = inhibition) at 10uM [%]"
1,COc1ccc(CCNC(=O)CNS(=O)(=O)c2ccc(Br)s2)cc1OC,-2.94
2,O=c1cc2c(nn1Cc1cccc(Cl)c1)-c1ccccc1CC2,-12.3
3,CCC(C)OC(=O)n1ccc(C(=O)Nc2nccs2)n1 (stereo not shown),-13.8
4,CCCCn1c(O)c(C=NC2CCCCC2N)c(=O)[nH]c1=O (stereo not shown),5.96
5,CCCCN=Cc1c(O)n(-c2c(C)cc(C)cc2C)c(=O)[nH]c1=O,-16.1
6,COc1ccc(N2CCN(C(=O)CNS(=O)(=O)c3ccc(C)c(C)c3)CC2)cc1,-19
7,Cc1nc2c(oc3ccccc32)c(=O)o1,5.06
8,CCOC(=O)/C=C/C(=O)OCC(=O)NC(c1ccccc1)c1ccccc1,0.688
9,Cc1ccc(/C=C/C(=O)Nc2ccccc2C(N)=O)cc1,-3.96
10,COc1ccc(NC(=O)C(Sc2nnc3ccccn23)c2ccccc2)cc1Cl (stereo not shown),-1.62
11,CC1CN(Cc2nc3c(c(=O)[nH]c(=O)n3C)n2CCCc2ccccc2)CC(C)O1 (stereo not shown),-35.9
12,Cc1ccc2nc(NC(=O)c3ccc(Cn4cc(Cl)cn4)o3)sc2c1,12.5
13,COc1ccc(S(=O)(=O)N2CCCCCC2)cc1C(=O)N1CCN(c2ccccc2O)CC1,-70.6
14,CCOc1ccccc1-n1nnnc1SCc1nc2ccccc2s1,-1.41
15,CC(C)(C)c1cc(C(F)(F)F)nc(SCCCNC(=O)c2ccco2)n1,-30.9
16,CCOc1ccccc1NC(=O)CSCC(=O)Nc1ccccc1,4.34
17,CCOc1ccc(C2C(C#N)=C(N)N(N(C)C)C3=C2C(=O)CC(C)(C)C3)cc1 (stereo not shown),13.2
18,Cc1ccc(/C=C/C(=O)O)cc1S(=O)(=O)N1CCc2ccccc21,21.8
19,CCn1c(N2CCN(CC(=O)c3c[nH]c4ccccc34)CC2)nc2c1c(=O)[nH]c(=O)n2C,-21.5
20,COc1ccc(N(C(=O)c2ccco2)S(=O)(=O)c2cccs2)cc1,-32.4
21,COC(=O)c1ccc(Sc2ccccc2NS(=O)(=O)c2ccc(C)cc2)nc1,-7.94
22,Cc1ccc(S(=O)(=O)NC(=O)c2ccccc2C)cc1,15

row,Structure (SMILES),"hERG current change (%, negative = inhibition) at 10uM [%]"
1,Cc1cc(C)cc(NC(=O)N2C3CCCC2CC(NC(=O)C2CC2)C3)c1 (stereo not shown),17
2,O=C(CNS(=O)(=O)c1ccc(Cl)cc1)NNC(=O)c1cccnc1,20.7
3,O=C(N/N=C/c1ccc(Cl)cc1)c1ccc2c(c1)OCO2,13.3
4,Cc1ccc2c(c1)=C(c1ccccc1)N(O)CC(=O)N=2,21.7
5,O=Cc1cc(CCC(=O)O)ccc1O,7.65
6,Cc1ccc(S(=O)(=O)N2CCCC2C(=O)NCc2ccc3c(c2)OCO3)cc1 (stereo not shown),-27.2
7,Cc1ccc(NC(=O)CN2C(=O)N/C(=C/c3ccc4c(c3)OCCO4)C2=O)cc1,17.1
8,CCCOc1ccc(C(=O)Nc2ccc(NC(=O)c3cccs3)cc2)cc1,15.9
9,O=C(Nc1ncc(Cc2ccccc2Cl)s1)c1ccc(-c2cccc([N+](=O)[O-])c2)o1,14.5
10,O=C(Nc1cccc(F)c1)N1CCN(C/C=C/c2ccccc2)CC1,-59
11,COc1ccccc1C1C2=C(CC(C)(C)CC2=O)Nc2nnnn21 (stereo not shown),20.7
12,CCOc1ccccc1Nc1ncccc1C(=O)N1CCCC1,0.397
13,O=C(Nc1cnn(Cc2ccccc2)c1)c1cc2nc(-c3ccco3)cc(C(F)(F)F)n2n1,7.2
14,CCOc1cc(C(=O)Nc2ncccn2)cc(OCC)c1OCC,11.2
15,Cc1ccc(S(=O)(=O)N2CCC(=O)N(C(COC(=O)Nc3ccccc3)Cc3ccccc3)CC2)cc1 (stereo not shown),2.51
16,COc1ccc2c(C)c(CCC(=O)NCCCN3CCCC3=O)c(=O)oc2c1C,1.56
17,Cc1ccc(S(N)(=O)=O)cc1NC(=O)c1ccc2c3c(cccc13)CC2,7.83
18,COc1cccc(CN(C)C(=O)c2csc3c2CCCC3)c1OC,-7.76
19,CC(=O)Oc1cccc(C(=O)Nc2ccc3c(c2)C(=O)N(CC2CCCO2)C3=O)c1 (stereo not shown),13.7
20,CCN(C1CCCCC1)S(=O)(=O)c1cc(C)ccc1OC,-19.8
21,Clc1c2c(nc3ccccc13)CCC2,16.4
22,C=C(C)CSc1nnc(-c2ccc(C)cc2)n1N,10.3

row,Structure (SMILES),"hERG current change (%, negative = inhibition) at 10uM [%]"
1,Cc1c(-n2c(-c3ccccc3Cl)n[nH]c2=S)c(=O)n(-c2ccccc2)n1C,22
2,COc1ccccc1/C=C/C(=O)OC(C)CN1CCCCC1.Cl (stereo not shown),-1.44
3,O=C(CN(c1ccc([N+](=O)[O-])cc1)S(=O)(=O)c1ccccc1)N1CCCCC1,-61.9
4,O=C(c1ccco1)N1CCN(c2ccc(Cl)cc2)CC1,-40.7
5,O=C(Nn1cc(C(=O)Nc2ccc(F)cc2F)c2ccccc2c1=O)c1cnccn1,-2.17
6,COCCCNC(=O)CN(CCc1ccccc1)S(=O)(=O)c1ccc(OC)cc1,-26.5
7,Cc1c(S(=O)(=O)Nc2cccc3ccccc23)c(=O)n(C)c(=O)n1C,6.97
8,O=C(O)C(Cl)Cl,11.6
9,Cc1nn(Cc2ccccc2)c(C)c1C=C1C(=O)NC(=S)NC1=O,5.27
10,CN(CC(=O)Nc1ccc2c(c1)OCO2)S(=O)(=O)c1cccs1,-26.9
11,CC(=O)N1CCOc2ccc(S(=O)(=O)N3CCN(c4cccc(C(F)(F)F)c4)CC3)cc21,7.8
12,Cc1ccc2c(c1)CCCN2C(=O)c1cc(C)on1,5.99
13,c1ccc(Cc2nnc3n2N=C(c2ccccc2)CS3)cc1,-44.1
14,CCC1COCCS(=O)(=O)N1Cc1ccc(C)cc1 (stereo not shown),-1.07
15,O=C(c1cc(-c2ccc(Br)cc2)on1)N1CCOCC1,1.38
16,Cc1c(N2C(=O)CSC23C(=O)Nc2ccccc23)c(=O)n(-c2ccccc2)n1C (stereo not shown),4.6
17,COc1cc([N+](=O)[O-])cc2sc(NC(=O)C3CC3)nc12,14.5
18,Cc1ccccc1OCC(=O)Nc1ccc2c(c1)OCCO2,-5.02
19,CC(O)c1nc2ccccc2n1Cc1nnc(-c2ccc(Cl)cc2)o1 (stereo not shown),3.53
20,COc1ccc(CN2C(=NC(=O)c3ccccc3)SC3CS(=O)(=O)CC32)cc1 (stereo not shown),32.1
21,CC(=O)C1=C(O)C(=O)N(c2ccc(Br)cn2)C1c1ccccc1F (stereo not shown),10.6
22,O=C(NCc1cn2ccccc2n1)c1ccco1,5.06

# Source: PMC4336329 (PLoS ONE, 2015)
